According to PubChem BioAssay AID2675 (National Center for Advancing Translational Sciences (NCATS), 2010):
In all, about 280,000 compounds went through this assay and about 100 (0.036%) were called active. This list was built around the results that the source calls inconclusive (neither active nor inactive); the mix of calls is not that of the screen. Calls come from the whole dose curve; as a rule, active = well fitted inhibition curve with a large enough effect in the signal ratio, with a control signal flat (not every such curve was filed as active); inconclusive = small, poorly fitted or top-dose-only effect, or effect the other way, or a change in a side signal; inactive = no such curve, though single readings can be large or run the other way; the % refers to the signal ratio. Where the call is inconclusive, the potency comes from a doubtful curve fit. A note “side channel” means that the fit belongs to a control or component signal, not to the main read-out.

Biological target: Muscleblind-like protein 1 (Homo sapiens) (UniProt Q9NR56)
Test: qHTS Assay for Inhibitors of MBNL1-poly(CUG) RNA binding
Settings: TR-FRET MBNL1-His/biotin-(CUG)12 binding, 665/545 ratio; series mostly up to 57.5 µM
In short: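 Ratiometric TR-FRET (665 over 545 nm, excitation 340 nm) tracks disruption of MBNL1-His/biotin-(CUG)12 complex after 60 min at room temperature, with compounds at 92 nM to 58 uM final.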
Potency is the fitted concentration of half-maximal effect; tags give direction and shape of the fitted curve or compound fluorescence and quenching.

UniProt Q9NR56, sequence (Q9NR56 whole entry, looked up): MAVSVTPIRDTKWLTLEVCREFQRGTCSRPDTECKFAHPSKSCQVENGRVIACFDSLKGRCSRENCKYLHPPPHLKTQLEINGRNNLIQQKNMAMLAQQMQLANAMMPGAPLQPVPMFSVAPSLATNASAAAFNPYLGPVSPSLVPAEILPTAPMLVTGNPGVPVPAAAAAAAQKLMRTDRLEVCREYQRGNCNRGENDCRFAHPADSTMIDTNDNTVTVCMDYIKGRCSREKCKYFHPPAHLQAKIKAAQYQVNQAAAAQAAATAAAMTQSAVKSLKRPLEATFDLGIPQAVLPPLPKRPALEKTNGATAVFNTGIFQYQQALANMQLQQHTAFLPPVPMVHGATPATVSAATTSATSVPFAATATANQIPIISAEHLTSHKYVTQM

SMILES	Potency
CC(C)CC(=O)c1c[nH]c(C(=O)NCc2cccs2)c1	inactive
C/C(=N\NC(=O)c1csc(C)c1C)c1ccc(Cl)s1	inactive
CC(C)N(Cc1ccccc1)C(=O)c1cnc2n(c1=O)CCS2	inconclusive: 0.794 µM [quencher, side channel, single point]
COC(=O)c1cccc(N2C(=O)C(Cl)=C(N3CCOCC3)C2=O)c1	inconclusive: 14.1 µM [quencher, side channel, partial curve]
CCc1cccc(CC)c1N1C(=O)c2cc(N3CCOCC3)c([N+](=O)[O-])cc2C1=O	inconclusive: 15.8 µM [quencher, side channel, partial curve]
CC1(C)CC(=O)C2=C(C1)N(c1ccccc1)C(N)=C(C#N)C2c1ccccc1 (configuration not stated)	inconclusive: 25.1 µM [quencher, side channel, partial curve]
CNC(=S)Nc1ccc([N+](=O)[O-])cc1	inconclusive: 17.8 µM [quencher, side channel, partial curve]
CN(NC1CC(=O)N(c2ccccc2)C1=O)c1ccccc1 (configuration not stated)	inconclusive: 14.1 µM [quencher, side channel, partial curve]
CCC(Cc1ccccc1)NC(=O)CSc1ccsc1[N+](=O)[O-] (configuration not stated)	inconclusive: 22.4 µM [quencher, side channel, partial curve]
COc1ccc(OC)c(C2=NS(=O)(=O)N(C)C(C(=O)Nc3ccc(F)cc3F)=C2)c1	inconclusive: 14.1 µM [quencher, side channel, partial curve]
O=C(NCc1cccnc1)C(=O)N/N=C/c1ccc([N+](=O)[O-])cc1	inconclusive: 39.8 µM [quencher, single point]
COC(=O)CC1C(=O)NCCN1C(=S)NC(=O)c1sc2ccccc2c1Cl (configuration not stated)	inactive
Cn1c(N)c(C(=O)/C=C/c2ccccc2)c(=O)[nH]c1=O	inconclusive: 11.2 µM [quencher, side channel, partial curve]
O=C(O)c1cccc(-c2ccc(/C=N/Nc3ccc([N+](=O)[O-])cc3)o2)c1	inconclusive: 14.1 µM [quencher, partial curve]
CCN1C/C(=C/c2sccc2C)c2nc3ccccc3c(C(=O)O)c2C1	inconclusive: 28.2 µM [quencher, side channel, partial curve]
Cc1ccc(-c2noc(CCC(=O)NCCc3ccccc3Cl)n2)cc1	inactive
O=C(O)c1cc2nc(-c3ccccc3)cc(-c3ccccc3)n2n1	inconclusive: 15.8 µM [quencher, side channel, partial curve]
